# From the RNAGym collection of RNA variant scans (doi:10.7554/elife.90254)
# The source gives no read counts; variants with many changes may rest on few reads.
# B1: LINE1-mini (parent)
# chain: GGCAGAGCUCAACACAGCGUGGCAAAGUGGCUGUGGCUAGACUGCC
# Variants of: B1
# Test: self-cleavage, relative activity (ratio to wild type); higher = more cleavage; in vitro, sequencing; the parent is a self-cleaving ribozyme
row,Variant,self-cleavage
1,C3G A4G A16G,0.01
2,C3U A24U G44C,0.07
3,C3U A11U G29C C46A,0.01
4,C3G G27A C31U G33A,0.1
5,C3G G5U A6C,0.98
6,C3G G7U C10U,0.13
7,C3U C8A C10G,0.03
8,C3U A24U G27C G36A,0.33
9,C3U A6G C15U G36A,0.12
10,C3G A12U A41G,0.05
11,C3U A12G A25C G30U,0.04
12,C3A U20G C37A,0.14
13,C3U A16G U28G C45U,0.21
14,C3G C10A C15U,0.03
15,C3G A25U C31A C42A,0.12
16,C3U A4C G29U C46A,0.09
17,C3U A16G U34A G40U,0.07
18,C3G G21A G22C C23G,0.23
19,C3U A11G C15U,0.05
20,C3G G40C U43A C45A,0.05
21,C3A G36U G40U,0.08
22,C3G G7U C13G C23A G30A U34C G40A,0.13
23,C3G C23U G29C G30U C45U,0.04
24,C3U A11U A14U G19A A39C,0.02

row,Variant,self-cleavage
1,C3G C10A C45U,0.04
2,C3U A6C A11C G17U,0.03
3,C3G A11G G17U G40A,0.03
4,C3G G5C C18A,0.08
5,C3G A16C C23A G36A A39C,0.02
6,C3G C8U A14C G30A,0.05
7,C3G A39C C45A,0.06
8,C3G C8U C31U,0.27
9,C3G A14C C15U A26G U32A U34C,0.04
10,C3G C23A G29C C31A U38G C45U,0.02
11,C3G C10A A26U U32A G33C G36A,0.01
12,C3G C8A G22U C46G,0.13
13,C3G A14U G30C U32A,0.37
14,C3G A4G G5U U32C G35A C37A U43A,0.02
15,C3G U9G G17A C31G,0.26
16,C3U A16U G19U G27C G30C U38A,0.03
17,C3G G33A G36U,0.27
18,C3G A4C G5C A12U C31G,0.03
19,C3G C15G U43C,0.05
20,C3G U32G C42G,0.15
21,C3U A6C U32A C45G,0.08
22,C3U A26G U28A,0.16
23,C3A U9G C15U G33C,0.56
24,C3G G19A G40U,0.09

row,Variant,self-cleavage
1,C3G G5C A12G C31U,0.05
2,C3G C10G C45A,0.03
3,C3U A16G C37U,0.04
4,C3G G5U G22U G27U C31G G35U U38G,0.02
5,C3G G5C G7C C18A,0.03
6,C3G C13G A14G G33A A41U,0.11
7,C3G A4C C15U G27A G33U U38C A39G,0.49
8,C3G G30C G33C,0.08
9,C3G A6C G22A G40U,0.07
10,C3G A11G U20C,0.02
11,C3G G5U G40U C45A,0.04
12,C3A G33C G35C,0.02
13,C3G C10U G33U C42U,0.03
14,C3G A24G G36A C45A,0.04
15,C3G G35A A39U,0.04
16,C3G G5C C13U U32A,0.03
17,C3G C13G A39U C45U,0.07
18,C3G G7C G19U,0.06
19,C3G C13A A25U C45G,0.08
20,C3U A6G U9C A11U G33C G36U C37U A41G,0.01
21,C3G G17A G44C,0.58
22,C3G G27A U28A U32C,0.06
23,C3G C8A U28A,0.15
24,C3G C10U C13U,0.06

row,Variant,self-cleavage
1,C3G G17C G44C,0.54
2,C3A G35C C42A G44A,0.11
3,C3G G27A C31A G35C,0.19
4,C3U A26C U38A,0.08
5,C3G C10A G30C G33U C37A,0.02
6,C3G U9A G36C A39U,0.02
7,C3G G19C A24U U43C,0.03
8,C3U A11G G33A,0.06
9,C3G G21U U38A A39G,0.72
10,C3G U9G C23U,0.71
11,C3G A12G C18A,0.34
12,C3A U9G G17U G44C C46U,0.01
13,C3G A26C G40A,0.02
14,C3A U9C A11C G19U U20G,0
15,C3G G27C G44A,0.59
16,C3U A14U G29U,0.22
17,C3G C13U G44U,0.06
18,C3G A12U G17U G19U G21A,0.1
19,C3U A16C G17A C18A,0
20,C3G U20C A25G C42G C46G,0.02
21,C3G A12U C18G,0.17
22,C3G G7A A12U C23U C46U,2.75
23,C3G A11C G33U,0.02
24,C3G C8A G44U,0.23

row,Variant,self-cleavage
1,C3G A11C A14U C15A U28G G30A G36A,0.02
2,C3G C10A A25G,0.04
3,C3G C8U G17C C46U,0.29
4,C3U A4U A39G,0.11
5,C3G A16U C31A,0.03
6,C3U A4U G22C,0.07
7,C3G A4G G21U G27C,0.04
8,C3G U20A A26C,0.04
9,C3G A14U G21A C31U U34A G35C G36U,0.01
10,C3G G7C C10U C31A G40A,0.04
11,C3G G21A G33U,0.04
12,C3A U32G U43A,0.11
13,C3U A25U G29A C45G,0.12
14,C3U A4C C13U C15U A24C G36A,0.59
15,C3A U9G A11C G17A C23A C31A G36U,0.01
16,C3G C8U G19A G30A,0.47
17,C3U A4G C8A G21A G29A U38C A41C,1.06
18,C3U A14G A24C,0.08
19,C3G C23A U32A,0.19
20,C3G A24G G33U C37U,0.04
21,C3G A4C G27U,0.07
22,C3G C13A C46A,0.48
23,C3G G27A U38C C42G,0.16
24,C3G A24C G27C U38G,0.02

row,Variant,self-cleavage
1,C3U A24C C31U,0.02
2,C3U A12C G22A C23A,0.03
3,C3G A11U C15U G33C,0.03
4,C3G A24G C37G,0.06
5,C3U A16C A26C G33U C45G,0.02
6,C3U A16U G21U G22U G29A,0.19
7,C3U A4C G7C G17C U20C,0.1
8,C3G G7U C8A C45G,0.42
9,C3G C10G G27C,0.06
10,C3G C8G C31A,0.03
11,C3G C8G C13G A16G G33U G40U,0.07
12,C3A G40C C42U,0.05
13,C3G C8G G29U G33A C42G C46U,0.24
14,C3G G5C C45A,1.51
15,C3A U32C C45G,0.07
16,C3U A16U U38C,0.07
17,C3G A4U C15U A25U A26U G40C,0.27
18,C3G C8G U20C G30C C45G,0.08
19,C3G G5A A11G U43C,0
20,C3G A6C G21C C23U A24U C45G,0.03
21,C3G C8G G30C G36U,0.56
22,C3G A4C G5C G21U,0.07
23,C3G U9G A11C G21A C31A G40C C46U,0.01
24,C3G A4U A6G U28A,0.03

row,Variant,self-cleavage
1,C3G G5U C18G G30U C46U,0.06
2,C3G A6U C13A G21A G30C A39U C45A,0.05
3,C3U A12U A26U G27A,0.07
4,C3G C15U G29A G30U,0.08
5,C3U A26C A41C,0.04
6,C3G A12U G19C C37G A39C,0.03
7,C3G C13A U28G U34C,0.17
8,C3G G7C A24U,0.44
9,C3A U34A A39U,0.01
10,C3G C42G C45G,0.18
11,C3U A11G C18U,0.04
12,C3U A11U G21C A24G,0.11
13,C3G U20G G22U G29U C37U,0.14
14,C3G A26U G35U,0.16
15,C3G A4U A26U,0.09
16,C3A G36C C42U,0.69
17,C3G A6C C18U G21A U32C C45U C46A,0.28
18,C3G A14U C31G C45A,0.04
19,C3G A16G U20G G30C,0.13
20,C3G A4U G21A G22U C31U C46A,0.02
21,C3G A4C G7A C8U,0.82
22,C3G G7U C13U A25C G27U,0.09
23,C3A U9G C10G A26U U28C U32C,0.01
